Reference: paper PMC4336329 (PLoS ONE, 2015)
In all, about 310,000 compounds went through this assay and about 2,200 (0.71%) showed an effect of 50% or more. Effects have a minus sign here. Some of the results follow.

Target: human ether-à-go-go-related gene (hERG) potassium channel (human, UniProt Q12809)
Test: primary screen, population patch clamp on CHO cells stably expressing hERG

Sequence of human ether-à-go-go-related gene (hERG) potassium channel (Q12809 whole entry, looked up): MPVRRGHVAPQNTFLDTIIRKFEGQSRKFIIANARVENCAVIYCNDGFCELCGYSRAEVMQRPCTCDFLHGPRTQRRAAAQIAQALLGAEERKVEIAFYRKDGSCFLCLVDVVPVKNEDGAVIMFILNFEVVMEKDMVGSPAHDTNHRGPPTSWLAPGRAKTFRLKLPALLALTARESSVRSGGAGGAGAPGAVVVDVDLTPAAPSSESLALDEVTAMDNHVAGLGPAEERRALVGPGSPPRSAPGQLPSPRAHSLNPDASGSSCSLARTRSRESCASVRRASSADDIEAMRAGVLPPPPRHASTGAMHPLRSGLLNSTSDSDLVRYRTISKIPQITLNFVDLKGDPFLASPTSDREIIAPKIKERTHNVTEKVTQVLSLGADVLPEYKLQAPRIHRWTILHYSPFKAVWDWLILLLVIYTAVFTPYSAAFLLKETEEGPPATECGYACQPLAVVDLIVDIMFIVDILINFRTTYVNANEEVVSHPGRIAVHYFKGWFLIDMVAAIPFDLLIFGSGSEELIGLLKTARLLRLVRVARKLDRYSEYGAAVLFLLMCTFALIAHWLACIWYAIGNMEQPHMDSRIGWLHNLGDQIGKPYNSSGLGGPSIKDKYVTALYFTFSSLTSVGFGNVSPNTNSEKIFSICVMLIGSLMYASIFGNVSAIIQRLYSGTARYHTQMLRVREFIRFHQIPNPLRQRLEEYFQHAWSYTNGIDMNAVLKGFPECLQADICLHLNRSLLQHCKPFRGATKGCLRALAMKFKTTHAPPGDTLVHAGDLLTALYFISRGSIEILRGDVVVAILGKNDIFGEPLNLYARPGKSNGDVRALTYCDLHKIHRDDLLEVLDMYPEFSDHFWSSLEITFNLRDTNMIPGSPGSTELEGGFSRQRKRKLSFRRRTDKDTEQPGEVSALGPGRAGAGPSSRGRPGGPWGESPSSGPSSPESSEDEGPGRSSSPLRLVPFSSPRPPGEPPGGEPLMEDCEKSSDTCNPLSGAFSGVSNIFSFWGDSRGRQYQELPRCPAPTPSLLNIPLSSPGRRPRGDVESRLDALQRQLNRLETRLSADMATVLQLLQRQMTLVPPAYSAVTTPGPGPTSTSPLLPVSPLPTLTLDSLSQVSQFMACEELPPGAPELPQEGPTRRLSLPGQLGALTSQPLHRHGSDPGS

Row | Structure (SMILES) | hERG current change (%, negative = inhibition) at 1uM [%]
1 | COc1ccc(/C=N/NC(=O)c2ccc(Cl)c(S(N)(=O)=O)c2)cc1OCC(N)=O | -0.711
2 | Cn1c(Cc2ccccc2)nnc1SCC(=O)Nc1ccccc1 | 8.11
3 | O=S(=O)(NCC1CCCO1)c1ccc(S(=O)(=O)N(Cc2ccc(F)cc2)C2CCCCC2)cc1 (stereo not shown) | 1.01
4 | COC(=O)C1=C(C(=O)c2ccc(C)cc2)C(c2ccc(OC)c(OC)c2)n2nnnc2N1 (stereo not shown) | 16
5 | Cc1ccc(C)c(C(=O)CSc2nc3ccccc3c(=O)[nH]2)c1 | 11.7
6 | O=C(O)c1cc(-n2[nH]c(=O)c3ccccc3c2=O)ccc1Cl | 8.37
7 | COc1ccc(CCNC(=O)COc2ccc(C)nc2[N+](=O)[O-])cc1 | 6.46
8 | O=C(CCc1ccccc1)Nc1cc2c3c(c1)CC(=O)N3CCC2 | 4.53
9 | CC(=O)c1cnc2cc(-c3ccc(Cl)cc3)nn2c1C | 5.14
10 | Cn1cc([N+](=O)[O-])c(C(=O)NC2CCCCCC2)n1 | 15.5
11 | COC(=O)[C@H](Cc1ccccc1)NC(=O)N1CCCCCC1 | 5.61
12 | C#Cc1ccc([C@H]2C=C(C(=O)O)O[C@@H](OCCCCO)C2)cc1 | 21.1
13 | Cc1ccc(C)c(N2CCN(S(=O)(=O)c3c(C)[nH]c(C)c3C(=O)N3CCCC3)CC2)c1 | 14.4
14 | CCN(CC(=O)Nc1cc(Cl)ccc1C)C(=O)C1CC(=O)N(Cc2ccccc2)C1 (stereo not shown) | 4.18
15 | Cc1cc(C(=O)COC(=O)c2ccccc2Br)c(C)n1CC1CCCO1 (stereo not shown) | -7.72
16 | COc1ccc(N2CCN(S(=O)(=O)c3ccc4c(c3)NC(=O)C(C)S4)CC2)cc1 (stereo not shown) | 9.05
17 | Fc1ccc(-c2cc(-c3ccccc3)nc(-n3cccn3)n2)cc1 | 3
18 | CC(C)Oc1cccc(NC(=O)c2cnccc2C(F)(F)F)c1 | 10.8
19 | S=C(Nc1cc(Cl)ccc1Cl)Nn1cnnc1 | 18.7
20 | CN1C2CCC1CC(NC(=O)CSc1ccc(C(C)(C)C)cc1)C2 (stereo not shown) | 8.3
21 | COc1ccc2c(c1)CCC(C)N2C(=O)C(=O)c1c[nH]c2ccccc12 (stereo not shown) | 19.7
22 | O=C(Nc1ccccc1C(=O)OCn1nnc2ccccc2c1=O)c1ccco1 | 21.8

Row | Structure (SMILES) | hERG current change (%, negative = inhibition) at 1uM [%]
23 | Cl.c1ccc(CN2C3=NCCCN3c3ccccc32)cc1 | -29
24 | COC(=O)c1c(NC(=O)COC(=O)Cn2cnc3ccccc32)sc2c1CCCC2 | 1.92
25 | O=C(NCCC1=CCCCC1)c1cc(S(=O)(=O)N2CCOCC2)ccc1Cl | 5.24
26 | O=C(O)C(c1ccccc1)N1C(=O)/C(=C/c2cccs2)SC1=S (stereo not shown) | 14.6
27 | O=C(c1ccc(N2CCN(C(=O)c3ccccc3Br)CC2)cc1)c1cccc(F)c1 | 6.89
28 | CCCn1c(=O)[nH]c(=O)c2c1nc(-c1ccc(C(F)(F)F)cc1)n2CCOC | 10.1
29 | Cc1c(N=Cc2ccccn2)c(=O)n(-c2ccccc2)n1C | 4.31
30 | CCC(C)NCCC(=O)Nc1ccc(Cl)c(S(=O)(=O)Nc2ccc(Cl)cc2)c1 (stereo not shown) | -15.9
31 | CN1CCN(C(=S)c2cn(Cc3ccc(Br)cc3)c3ccccc23)CC1 | 13.6
32 | Clc1ccc(Cl)c(OCCN2CCOCC2)c1 | 7.42
33 | Cc1cccc(NC(=O)c2ccc([N+](=O)[O-])s2)n1 | 11.1
34 | S=C(Nc1cccc2ccccc12)NN1CCOCC1 | 3.81
35 | COC(=O)c1ccc(NC2=C(Cl)C(=O)OC2OC(=O)c2ccccc2)cc1 (stereo not shown) | 6.59
36 | CCCCOc1ccc(Cc2n[nH]c(=S)n2N)cc1 | 11.4
37 | Cc1ccc(N2CC(C(=O)NCc3ccc(C)n3C)CC2=O)cc1 (stereo not shown) | 3.75
38 | Cc1c(C(=O)Nc2ccc(-n3cnnn3)cc2)oc2ccccc12 | 10.2
39 | O=C(NCCN1C(=O)S/C(=C\c2ccccc2)C1=O)c1cc(S(=O)(=O)N2CCOCC2)c(Cl)cc1Cl | 0.756
40 | O=C(CCc1c[nH]c2ccccc12)NC(Cc1ccccc1)C(=O)O (stereo not shown) | 18.4
41 | COc1ccccc1NC(=O)N1CCC(c2nnc(SCC(N)=O)n2C)CC1 | 18.9
42 | Cc1ccc(NC(=O)C2CCCCC2)c(O)c1 | 14.5
43 | Cc1cc(C)nc(SCc2ccc(C(=O)NN=C3C4CC5CC(C4)CC3C5)cc2)n1 | -4.87
44 | CN(C)c1nc(NCc2ccccc2)nc(SCC(=O)Nc2ccc(Cl)c(Cl)c2)n1 | -2.44

Row | Structure (SMILES) | hERG current change (%, negative = inhibition) at 1uM [%]
45 | CC(=O)c1sc(N)c(C(=O)OC(C)C)c1C | 9.23
46 | COc1ccc(-c2noc(=O)n2Cc2ccc(C#N)cc2)cc1 | -20.8
47 | COc1cccc(N2CCN(C(=S)Nc3ccc(C)cc3C)CC2)c1 | 12.1
48 | CC(C)[N+]1=C2C=CC=CC=C2SC12C([N+](=O)[O-])=CC(=[N+]([O-])[O-])C=C2[N+](=O)[O-] (stereo not shown) | 9.83
49 | O=C(OCC(=O)N1CCc2ccccc21)c1nc(Cl)ccc1Cl | 2.65
50 | O=C(Nn1cnnc1)c1ccc(F)c(S(=O)(=O)N2CCCCC2)c1 | 10.5
51 | COc1ccc(-c2nc(CN3CCN(C(=O)c4ccco4)CC3)c(C)o2)c(F)c1 | 5.04
52 | CCOC(=O)c1cc(C(C)=O)n2ccccc12 | 11.3
53 | O=C(CSCc1ccc([N+](=O)[O-])cc1)Nc1cccc(C(=O)Nc2ccccc2C(=O)O)c1 | 16.3
54 | COC(=O)c1ccc(=O)n(Cc2ccco2)c1 | -0.924
55 | CC(=O)Nc1cc(NC(C)=O)cc(C(=O)NC(C)(C)C)c1 | 6.11
56 | NC(=O)C1CCN(C2OC(=O)c3ccccc32)CC1 (stereo not shown) | -15
57 | COc1ccccc1/C=C/C(=O)OCC(=O)NC1CCCCCC1 | 10.9
58 | CCCOc1ccc(C(=O)N2CCN(Cc3ccc4c(c3)OCO4)CC2)cc1 | -46.6
59 | Cc1c(CC(=O)N[C@@H](C)C(=O)O)c(=O)oc2cc3occ(-c4ccccc4)c3cc12 | 18.2
60 | COC(=O)C1=C(C)N(c2ccc(OC)cc2)C(C)=C(C(=O)OC)C1c1ccc(OC)cc1 | 14
61 | CCOC(=O)c1ccc(NC(=S)NC(=O)c2nn(CC)cc2Br)cc1 | 6.28
62 | O=C(c1cc(Cl)ccc1Cl)N1CCc2ccccc21 | 5.23
63 | O=C(NC(=S)Nc1ccccc1O)c1cccnc1 | 16
64 | CCCCSc1nc2sc3c(c2c(=O)n1-c1ccccc1)CCN(C)C3 | 6.7
65 | COc1ccccc1C(=O)Nc1ccccc1C(=O)NC1CCCCC1 | 6.43
66 | O=C(c1ccccc1)N1CCN(S(=O)(=O)c2ccccc2)CC1 | 6.24

Row | Structure (SMILES) | hERG current change (%, negative = inhibition) at 1uM [%]
67 | COc1cccc(CNC(=O)CCC2CCCN(C(=O)c3ccc(OC)c(F)c3)C2)c1 (stereo not shown) | 9.6
68 | CCOc1ccc(N2C(=O)CC(n3ccc(C)n3)C2=O)cc1 (stereo not shown) | 17.1
69 | CCOCCCNc1nc2c(c(=O)n(C)c(=O)n2C)n1CCCc1ccccc1 | 8.56
70 | CCCCNC(=O)c1onc(CSc2ccccc2CC)c1C(=O)O | 13
71 | CCN(CC)c1cc2nonc2c2nonc12 | 10.2
72 | C=CCn1c(=NC(=O)C2CCCCC2)sc2cc(NC(C)=O)ccc21 | 4.03
73 | Cc1ccc(Cl)c(NC(=O)COC(=O)CNS(=O)(=O)/C=C/c2ccccc2)c1Cl | 16.8
74 | Cc1cc(CN(C)C(=O)c2cc(COc3ccc4ncccc4c3)on2)on1 | 12.3
75 | O=C(CN1C(=O)NC2(CCCC2)C1=O)N1CCN(c2ccccc2O)CC1 | -2.47
76 | O=C(COc1nc2ccccc2nc1N1CCOCC1)NCC(F)(F)F | 10.2
77 | CCC(=O)c1ccc(O)cc1 | 17.5
78 | Cc1cc(C)n(-c2ccc(C(=O)Nc3nc4ccccc4s3)cc2)n1 | -5.03
79 | O=[N+]([O-])c1ccc(N2CCN(c3ccccc3)CC2)nc1 | 13.3
80 | Cc1ccc(-n2c(C)nnc2SC(C)C(=O)N2CCCC2)cc1 (stereo not shown) | 11.6
81 | CCc1nc(C)ccc1OCC(=O)NCCCN(C)C.O=C(O)C(=O)O | 7.43
82 | CC(NC(=O)OCc1ccccc1)C(=O)Oc1cc2oc(=O)cc(-c3ccccc3)c2cc1Cl (stereo not shown) | 9.47
83 | Cc1ccc(C)c(-n2c(Cc3cc(=O)[nH]c(=O)[nH]3)nnc2SCC(=O)NCc2ccco2)c1 | 6.13
84 | COc1ccc(-n2c(SCC(N)=O)nc3sc4c(c3c2=O)CCN(C)C4)cc1 | 17.2
85 | CC1=C(C(=O)Nc2ccccc2)C2(CCCCC2)C(C#N)=C(S)N1 | 6.12
86 | CC(Oc1ccccc1)C(=O)Nc1oc(-c2ccco2)c(-c2ccco2)c1C#N (stereo not shown) | 13.8
87 | NS(=O)(=O)c1ccc(CCNC(=O)C(c2ccccc2)c2ccccc2)cc1 | 11.6
88 | Cc1noc(C)c1COc1ccc(C(=O)OCC(=O)OC(C)(C)C)cc1 | 11.7
